Measurements taken from PubChem BioAssay AID1645886 (National Center for Advancing Translational Sciences (NCATS), 2021).
Where “and” joins values, the source holds several entries; their conditions need not be identical. Equal entries are not always repeated. Among all 16,000 compounds or so, about 260 (1.6%) were called active. The shares of active, inactive and inconclusive entries below differ from those in the screen. Calls follow the shape of the dose curve; as a rule, active = well fitted inhibition curve with a large enough effect; inconclusive = small, poorly fitted or top-dose-only effect; inactive = no such curve, though single readings can be large or run the other way. Potencies of inconclusive entries are doubtful fits and often do not repeat.

The compounds below were run against Rap guanine nucleotide exchange factor 4 (Homo sapiens) (UniProt Q8WZA2) (assay: Validation qHTS for antagonist of cAMP-regulated guanine nucleotide exchange factor 4 (EPAC2)). Details: EPAC2 Rap1B BODIPY-GDP exchange, fluorescence; activity, negative = inhibition: at 112 µM (top of the series).
How it was run: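 Fluorescent exchange read-out: 100 nM EPAC2 with 250 nM RAP1B–BODIPY-GDP and 50 uM GDP; BODIPY-GDP release lowers fluorescence. Read at 480/540 nm every 5 min for 30 min at room temperature; normalized to 6.5 mM cAMP.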
Also: nearly all actives have a fitted effect of over 40% in size.
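For activity, negative = inhibition in this document: 100% = activation by cAMP agonist control.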
Potency is read from the fitted curve at half-maximal effect; tags tell the direction and shape of the fitted curve.

Chain of UniProt Q8WZA2 (Q8WZA2 whole entry, looked up): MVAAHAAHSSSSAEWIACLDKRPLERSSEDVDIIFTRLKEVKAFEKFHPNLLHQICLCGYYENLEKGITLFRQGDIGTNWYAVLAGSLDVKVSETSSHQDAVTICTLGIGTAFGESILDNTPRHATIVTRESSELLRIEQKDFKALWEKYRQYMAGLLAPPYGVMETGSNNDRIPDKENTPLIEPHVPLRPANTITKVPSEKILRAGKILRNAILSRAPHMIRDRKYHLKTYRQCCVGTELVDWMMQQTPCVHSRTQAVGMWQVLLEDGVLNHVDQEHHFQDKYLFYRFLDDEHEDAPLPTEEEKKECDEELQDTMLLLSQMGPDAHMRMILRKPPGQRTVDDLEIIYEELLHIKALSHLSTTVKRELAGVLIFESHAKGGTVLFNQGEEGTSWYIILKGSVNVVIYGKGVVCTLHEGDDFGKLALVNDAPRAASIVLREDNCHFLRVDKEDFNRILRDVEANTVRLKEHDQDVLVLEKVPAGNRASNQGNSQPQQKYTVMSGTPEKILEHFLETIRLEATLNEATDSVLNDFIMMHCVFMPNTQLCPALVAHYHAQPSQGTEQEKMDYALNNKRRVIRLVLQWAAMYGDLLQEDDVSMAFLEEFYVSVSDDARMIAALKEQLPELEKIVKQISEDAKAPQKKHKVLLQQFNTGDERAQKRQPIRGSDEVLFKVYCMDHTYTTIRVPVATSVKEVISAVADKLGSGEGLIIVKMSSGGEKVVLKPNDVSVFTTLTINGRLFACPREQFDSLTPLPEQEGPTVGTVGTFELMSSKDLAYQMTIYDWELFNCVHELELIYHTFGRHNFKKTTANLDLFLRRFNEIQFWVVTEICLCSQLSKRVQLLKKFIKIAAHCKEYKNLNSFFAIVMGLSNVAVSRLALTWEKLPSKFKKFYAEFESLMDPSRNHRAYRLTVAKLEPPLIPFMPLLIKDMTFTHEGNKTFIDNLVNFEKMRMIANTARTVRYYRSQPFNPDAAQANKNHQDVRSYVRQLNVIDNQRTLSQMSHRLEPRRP

Row | SMILES | Potency | activity, negative = inhibition
1 | CNCC(=O)N[C@@H](CCCN=C(N)N)C(=O)N[C@H](C(=O)N[C@@H](Cc1ccc(O)cc1)C(=O)N[C@H](C(=O)N[C@@H](Cc1cnc[nH]1)C(=O)N1CCC[C@H]1C(=O)N[C@@H](C)C(=O)O)C(C)C)C(C)C | inactive | 
2 | CC1=CCc2c(cc3oc(C)cc(=O)c3c2O)OC1 | inconclusive: 50.1 µM [inhibitor, partial curve] | 
3 | COc1cc(=O)n2c(c1C(=O)N(C)Cc1cscn1)CCN(C(=O)c1ccc(C)c(C)c1)CC2 | inconclusive: 89.1 µM [inhibitor, single point] | 
4 | Cc1[nH]c(C)c(Cl)c(=O)c1Cl | inconclusive: 56.2 µM [inhibitor, partial curve, poor fit] | 
5 | COc1cc(=O)n2c(c1C(=O)NC(C)c1ccco1)CCN(Cc1cc3ccccc3o1)CC2 (centres undefined) | inconclusive: 7.08 µM [inhibitor, full curve, poor fit] | 
6 | Cc1ccccc1-c1ccc2ncnc(N(C)Cc3ccco3)c2c1 | active: 20 µM | 
7 | COCC(=O)N1CCC2(CC1)CN(c1cccc(-c3ccccc3)c1)C2 | inconclusive: 70.8 µM [inhibitor, partial curve, poor fit] | 
8 | CCOC(=O)C[n+]1cccc(Br)c1 | inactive | 
9 | CCCCCCCNS(=O)(=O)c1cccc2c(Cl)cccc12 | inconclusive: 28.2 µM [inhibitor, full curve] | 
10 | CC(C)[C@H]1COCCS(=O)(=O)N1Cc1cccc(Cl)c1 | inconclusive: 8.91 µM [inhibitor, partial curve, poor fit] | 
11 | O=S1(=O)CCO[C@H]2Cc3ccccc3[C@H]2N1Cc1cccc(F)c1 | inconclusive: 56.2 µM [inhibitor, partial curve, poor fit] | 
12 | N[C@@H](COP(=O)(O)O)C(=O)O | inconclusive: 100 µM [inhibitor, partial curve, poor fit] | 
13 | CCCCC/C=C\C/C=C\CCCCCCCC(=O)O | inconclusive: 25.1 µM [inhibitor, partial curve] | 
14 | Cc1cccc(N(C)C(=S)Oc2ccc3ccccc3c2)c1 | inactive | 
15 | C[C@@]12C(=O)OC(=O)[C@@]1(C)[C@@H]1CC[C@@H]2O1 | active: 56.2 µM | 
16 | C[N+]1(CC(=O)c2ccccc2)CCc2ccccc2C1 (centres undefined) | inconclusive: 35.5 µM [inhibitor, single point] | 
17 | FC(F)(F)c1ccccc1-c1nccc(NCc2ccccc2)n1 | inconclusive: 50.1 µM [inhibitor, partial curve] | 
18 | O=C1C(Nc2ccccc2)=CC(=O)c2ncccc21 | inconclusive: 63.1 µM [inhibitor, partial curve, poor fit] | 
19 | CCOC(=O)C[C@H]1c2ccccc2S(=O)(=O)N1Cc1ccc(Cl)cc1 | inconclusive: 22.4 µM [inhibitor, full curve, poor fit] | 
20 | CCCCCCCCCCCC(=O)[O][Sn]([CH2]CCC)([CH2]CCC)[O]C(=O)CCCCCCCCCCC | inconclusive: 12.6 µM [inhibitor, partial curve, poor fit] | 

Row | SMILES | Potency | activity, negative = inhibition
21 | COc1ccc(CCN(C)CCCOc2ccc(S(=O)(=O)c3[nH]c4ccccc4c3C(C)C)cc2)cc1OC | inconclusive: 44.7 µM [inhibitor, full curve, poor fit] | 
22 | Cc1ccccc1-c1nc(N2CCOCC2)c2ccccc2n1 | inconclusive: 39.8 µM [inhibitor, partial curve, poor fit] | 
23 | O=C(Nc1ccc(S(=O)(=O)N2CCOCC2)cc1)c1cc(Cl)ccc1NS(=O)(=O)c1ccc(Cl)s1 | inconclusive: 50.1 µM [inhibitor, partial curve, poor fit] | 
24 | CCCOC(=O)C1=C(C)CS[C@@H]2[C@H](NC(=O)COc3ccccc3)C(=O)N12 | inconclusive: 79.4 µM [inhibitor, single point] | 
25 | Cc1c(C(=O)N2CCN(C(C)C)CC2)sc2ncnc(NCc3ccco3)c12 | inconclusive: 0.501 µM [inhibitor, full curve, poor fit] | 
26 | COc1ccc(C(=O)N2CCC3(CC2)CCN(c2ccncc2)CC3)cc1 | inactive | 
27 | COCc1ccc(CN2CCOc3c(cc(-c4ccc(SC)cc4)cc3OC)C2)o1 | inactive | 
28 | CCOc1ccc(Cc2nccc3cc(OCC)c(OCC)cc23)cc1OCC | inconclusive: 56.2 µM [inhibitor, partial curve, poor fit] | 
29 | CC(=O)c1ccccc1-c1ccc2c(c1)CC(CNC(=O)c1ccnc(Cl)c1)O2 (centres undefined) | inconclusive: 28.2 µM [inhibitor, full curve, poor fit] | 
30 | Cc1ccc2c(c1)CN(C(=O)CC(c1ccccc1)c1ccco1)CC(C)O2 (centres undefined) | inconclusive: 14.1 µM [inhibitor, partial curve, poor fit] | 
31 | COc1ccc(-c2cc(=O)c3c(OC)c(OC)c(OC)c(OC)c3o2)cc1OC | inconclusive: 50.1 µM [inhibitor, partial curve, poor fit] | 
32 | Cc1cccc(CNc2cc(-c3ccccc3C)ncn2)c1 | inconclusive: 50.1 µM [inhibitor, partial curve] | 
33 | O=C(c1cc(C(F)(F)F)cc(C(F)(F)F)c1)N1CCC2(CC1)CCN(c1ncccn1)CC2 | inconclusive: 1.41 µM [inhibitor, full curve, poor fit] | 
34 | O=C(Oc1ccccc1)N1CCC2(CC1)CCN(c1ccccc1)CC2 | inconclusive: 35.5 µM [inhibitor, partial curve, poor fit] | 
35 | Cc1ccc2nc(SCC(=O)NCC3Cc4cc(-c5ncccc5C)ccc4O3)[nH]c2c1 (centres undefined) | inconclusive: 89.1 µM [inhibitor, single point] | 
36 | CCCCC[C@H]1CN(Cc2ccc(OC)cc2)C(=O)[C@@H]1CC(=O)NCc1ccccc1 | inconclusive: 89.1 µM [inhibitor, partial curve, poor fit] | 
37 | C[C@@H](CSc1ccc(Br)cc1)CN1CC[C@H](NC(=O)OCc2ccccc2)CCC1=O | inconclusive: 56.2 µM [inhibitor, partial curve, poor fit] | 
38 | CC(=O)N1CCN(c2nc3cc(C)ccc3cc2CN(C(=O)c2cccc3ccccc23)C2CC2)CC1 | inactive | 
39 | COc1ccccc1CCNc1ncnc2sc(C(=O)N3CCCCC3)c(C)c12 | inactive | 
40 | COc1cccc(-c2cncnc2NCCc2c[nH]c3ccc(OC)cc23)c1 | inconclusive: 89.1 µM [inhibitor, partial curve, poor fit] | 

Row | SMILES | Potency | activity, negative = inhibition
41 | CC(C)c1c(C(=O)NCc2ccncc2)cnn1-c1nccc(-c2cccs2)n1 |  | inconclusive: -31.9% [inhibitor]
42 | Cc1ccc(C(=O)Cn2c3c(sc2=N)CCCC3)cc1 | inconclusive: 63.1 µM [inhibitor, partial curve, poor fit] | 
43 | COc1cccc(Cn2c(=O)c(-c3cc(F)cc(F)c3)nc3cnc(N4CCNCC4)nc32)c1 | inconclusive: 79.4 µM [inhibitor, partial curve] | 
44 | c1ccc(Nc2nc(-c3ccc4c(c3)OCO4)nc3ccccc23)cc1 | inactive | 
45 | CCCc1c(OCCCOc2ccc(OCC(=O)O)cc2)ccc(CC=O)c1O | active: 44.7 µM | 
46 | CC(=O)N1CCC[C@H]1C(=O)NCC1Cc2cc(-c3cccc(OC(F)(F)F)c3)ccc2O1 (some centres undefined) | active: 70.8 µM | 
47 | COc1ccc(CCn2nnnc2C2(c3ccc(C)cc3)CC2)cc1 | inconclusive: 35.5 µM [inhibitor, partial curve] | 
48 | CC(C)CCCCCCc1ccc(O)cc1 | inconclusive: 56.2 µM [inhibitor, partial curve, poor fit] | 
49 | CC[C@@H](C(=O)[C@@H](C)[C@@H](O)[C@H](C)[C@@H]1O[C@@H]([C@@H](CC)C(=O)O)CC[C@@H]1C)[C@H]1O[C@]2(C=C[C@@H](O)[C@]3(CC[C@@](C)([C@H]4CC[C@](O)(CC)[C@H](C)O4)O3)O2)[C@H](C)C[C@@H]1C | inconclusive: 70.8 µM [inhibitor, single point] | 
50 | CC(=O)N1CCC[C@@]2(CCN(Cc3cc(C(F)(F)F)cc(C(F)(F)F)c3)C2)C1 |  | inconclusive: -36.8% [inhibitor]
51 | COc1cc(=O)n2c(c1C(=O)N(C)Cc1nonc1C)CCN(Cc1c(F)cccc1F)CC2 | inactive | 
52 | CN(C)c1nc2cc3c(cc2cc1CN(CC1CCCO1)C(=O)/C=C/c1cccs1)OCO3 (centres undefined) | inconclusive: 5.62 µM [inhibitor, full curve, poor fit] | 
53 | CC(C)C(=O)c1c(C(C)C)nn2ccccc12 | inconclusive: 44.7 µM [inhibitor, partial curve] | 
54 | C=C[C@@H]1c2c(F)cccc2N(S(=O)(=O)c2ccc(C)cc2)[C@H](c2ccc(C(=O)OC)cc2)C1(C#N)C#N | inconclusive: 100 µM [inhibitor, single point] | 
55 | COC(=O)[C@@H]1CCCN1C(=O)c1c(OC)cc(=O)n2c1CCN(Cc1cc(OC)ccc1F)CC2 | inactive | 
56 | CN(Cc1ccccc1)c1ccc(C=O)cc1 | inconclusive: 5.01 µM [inhibitor, full curve, poor fit] | 
57 | Cc1c(C(=O)N2CCCC(c3ccccc3)C2)sc2ncnc(NCCc3ccccn3)c12 (centres undefined) | inconclusive: 89.1 µM [inhibitor, single point] | 
58 | C[C@H](Cc1ccc(O)c(O)c1)[C@@H](C)Cc1ccc(O)c(O)c1 | inconclusive: 79.4 µM [inhibitor, single point] and inconclusive: 44.7 µM [inhibitor, partial curve, poor fit] | 
59 | NC(N)=NC(N)=Nc1ccccc1 | inconclusive: 89.1 µM [inhibitor, partial curve] | 
